Measurements as given in article PMC2834481 (Biochemistry, 2010).

Target: WT rat Munc18-1 (rat, UniProt P61765)
Assay: cross-linking

Chain of UniProt P61765 (P61765 whole entry): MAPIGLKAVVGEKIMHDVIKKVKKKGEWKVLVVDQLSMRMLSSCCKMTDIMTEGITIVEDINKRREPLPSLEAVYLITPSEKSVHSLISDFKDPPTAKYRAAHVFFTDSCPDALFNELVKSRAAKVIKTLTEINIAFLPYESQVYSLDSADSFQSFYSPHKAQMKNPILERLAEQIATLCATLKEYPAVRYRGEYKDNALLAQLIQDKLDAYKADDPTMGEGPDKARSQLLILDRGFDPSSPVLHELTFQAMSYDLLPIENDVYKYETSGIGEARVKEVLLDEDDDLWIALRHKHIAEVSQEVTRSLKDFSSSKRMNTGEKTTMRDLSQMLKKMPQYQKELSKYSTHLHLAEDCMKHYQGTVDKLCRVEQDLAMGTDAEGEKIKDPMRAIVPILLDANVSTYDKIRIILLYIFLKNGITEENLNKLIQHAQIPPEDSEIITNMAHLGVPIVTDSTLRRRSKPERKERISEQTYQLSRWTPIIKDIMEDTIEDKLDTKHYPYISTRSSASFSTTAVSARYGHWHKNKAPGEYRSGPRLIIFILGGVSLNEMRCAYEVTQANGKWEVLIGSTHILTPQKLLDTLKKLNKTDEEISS

B1: synaptobrevin([…]) (domain or fragment)
chain: not shown
B1: binds.
